About 65 (0.1%) of roughly 45,000 compounds were called active. The call rests on the fitted dose curve; in most records, active means well fitted activation curve with a large enough effect; inconclusive means small, poorly fitted or top-dose-only effect; inactive means no such curve, though single readings can be large or run the other way. This is one part of the list.
Biological target: Galactocerebrosidase (Homo sapiens) (UniProt P54803)
Assay: A Novel Cell-Based Assay to Identify Small Molecules for B -Galactocerebrosidase; further: 0% is about no effect; nearly all actives have a fitted effect of over 65% in size
Settings: 145M-Twi-hGALC-G270D cells (Twitcher mouse brain line with human GALC G270D), HMU-beta-Gal fluorescence, 48 h; series mostly up to 57.5 µM; activation: at the top concentration
Outline: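 Live 145M-Twi cells (Twitcher mouse brain-derived, GALC-null) stably expressing human GALC-G270D, with a wild-type GALC line, were compound-treated. Residual GALC activity was then read as fluorescence from 0.1 mM final HMU-β-gal at pH 5.2; higher signal means activation.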

UniProt P54803, sequence (P54803 whole entry, looked up): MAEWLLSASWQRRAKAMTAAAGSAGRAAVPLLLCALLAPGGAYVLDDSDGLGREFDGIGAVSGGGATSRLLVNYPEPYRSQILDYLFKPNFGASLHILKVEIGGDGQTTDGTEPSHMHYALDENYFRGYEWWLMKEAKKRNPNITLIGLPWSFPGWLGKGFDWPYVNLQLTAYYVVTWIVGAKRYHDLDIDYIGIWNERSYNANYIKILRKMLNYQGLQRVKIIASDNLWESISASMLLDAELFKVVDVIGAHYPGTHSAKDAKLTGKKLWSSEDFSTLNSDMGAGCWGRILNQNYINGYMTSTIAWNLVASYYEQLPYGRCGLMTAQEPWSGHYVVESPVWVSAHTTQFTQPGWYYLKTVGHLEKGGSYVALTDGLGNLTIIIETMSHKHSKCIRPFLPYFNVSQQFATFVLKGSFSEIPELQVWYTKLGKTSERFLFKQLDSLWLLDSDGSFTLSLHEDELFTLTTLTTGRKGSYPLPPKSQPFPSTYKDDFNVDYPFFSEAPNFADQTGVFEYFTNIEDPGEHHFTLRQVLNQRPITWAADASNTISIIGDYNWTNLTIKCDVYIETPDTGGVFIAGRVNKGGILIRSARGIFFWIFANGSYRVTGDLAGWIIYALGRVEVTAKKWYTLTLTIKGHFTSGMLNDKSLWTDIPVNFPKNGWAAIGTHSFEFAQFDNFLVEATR

activation, inactive:
CC(=O)N1CCc2cc(S(=O)(=O)C(C)CC(=O)Nc3ccc(Br)c(C)c3)ccc21 (stereo unspecified) -9.2%, CN(C)S(=O)(=O)c1ccc(C(=O)NCCSc2c(-c3ccccc3)[nH]c3ccccc23)cc1 -19.2%, COc1ccc2nc(N(Cc3cccnc3)C(=O)Cc3ccccc3)sc2c1 -16.4%, COc1cc(S(=O)(=O)NCCc2c(C)[nH]c3ccccc23)c(C)cc1C -15%, CCc1cccc(-n2c(=O)c3cccnc3n2CC(=O)Nc2c(C)cc(C)cc2C)c1 -19%, COc1ccc(N(Cc2cc3cccc(C)c3[nH]c2=O)C(=O)c2cccc(Cl)c2)cc1 -14.4%, COc1ccccc1CNC(=O)CN1C(=O)COc2ccc(S(=O)(=O)NC3CCCC3)cc21 -5.2%, CC1CCN(CC2CCN(C(=O)Nc3ccc(Br)cc3F)CC2)CC1 -17.4%, Cc1cccc(-n2c(CNC(=O)c3cccc(F)c3)nnc2SCC(=O)Nc2ccccc2F)c1 -14.3%, Fc1cccc(-c2nnn3c2nc(NC2CCCCC2)c2ccccc23)c1 -6.23%, COc1ccc(NC(=O)C2=C(C)Nc3ncnn3C2c2cccn2C)cc1 (stereo unspecified) -26%, CC(=O)Nc1ccc(S(=O)(=O)NC2=NCN(CCO)CN2)cc1 3.3%, CCOCCCN1C(=O)c2ccccc2CC1(C)C(=O)NC1CCCCC1 (stereo unspecified) 1.85%, COC(=O)c1ccccc1NC(=O)c1sc2nc(C)cc(C)c2c1NC(=O)c1ccccc1OC -19.1%, COc1ccc(Cc2cnc(N)nc2N)cc1OC -13.4%, Cc1ccc(Cl)cc1-n1ncc2c(N3CCN(Cc4ccccc4)CC3)ncnc21 3.56%, Cc1noc(C)c1S(=O)(=O)N(CC(=O)NCCc1ccccc1)c1ccc(C(C)C)cc1 4.8%, CCOC(=O)c1c(NC(=O)c2ccc(S(=O)(=O)N(C)C3CCCCC3)cc2)sc2c1CCN(C(C)C)C2 -24.5%, COc1ccc(-c2nc(S(=O)(=O)c3ccc(Cl)cc3)c(NCc3ccccc3)o2)cc1 -15.2%, COc1ccc(CNC(=O)C2CCC(CNS(=O)(=O)c3ccc4c(c3)CCCC(=O)N4)CC2)cc1 (stereo unspecified) -0.484%, Cc1ccc(-c2cn3c(n2)sc2cc(C(=O)NCCC4=CCCCC4)ccc23)cc1 -11.7%, COc1cc(-c2nc(Cn3nnc(C(=O)Nc4cccc(Cl)c4)c3C)c(C)o2)cc(OC)c1OC -1.08%, COc1ccc(NC(=O)CSc2nc3c(oc4ccccc43)c(=O)n2Cc2ccco2)cc1Cl -15.3%, CC1CCN(S(=O)(=O)c2nnc(NC(=O)c3cccc(Cl)c3)s2)CC1 -20.5%, Cc1ccc(CCNc2ncnc3onc(-c4ccc(Cl)cc4)c23)cc1 -10.3%, COc1ccc(CNC(=O)CN2C(=O)CSc3ccc(S(=O)(=O)N4CCC(C)CC4)cc32)cc1 -17.5%, COc1ccc(/C=C/C(=O)Nc2nc(-c3cccs3)ns2)cc1 -8.22%, COc1ccc(OCC(O)Cn2c(NCCO)nc3c2c(=O)n(C)c(=O)n3C)cc1 (stereo unspecified) -30.4%, Cc1nn(CC(=O)N2CCN(c3ccc(Cl)cc3)CC2)c(=O)c2cccn12 -11.5%, Cc1csc2nc(COc3cccc(NC(=O)c4ccccc4F)c3)cc(=O)n12 -4.44%, CCN(CC)CCCNc1ncnc2c1cnn2-c1ccc(C)c(C)c1 -11.8%, CCOC(=O)CSc1nc2c(sc3ccccc32)c(=O)n1CCO -18.1%, CC(Cc1ccccc1)(NC(=O)CN)c1ccccc1 (stereo unspecified) -6.63%, CCOc1ccc(NS(=O)(=O)c2ccc3c(c2)CCCN3C(=O)C2CCC2)cc1 -13.7%, Cc1ccc(NC(=O)CSc2cn(CC(=O)N3CCCC3)c3ccccc23)cc1Cl -2.47%, COc1ccccc1CNC(=O)c1cn(C)c2ccc(S(=O)(=O)N(C)C3CCCCC3)cc2c1=O -12.2%, COc1ccc(NCc2cccn2-c2nnc(N3CCCCC3)s2)cc1OC -18.9%, Cc1cc(C)c(NC(=O)C2CCN(c3nn4c(=O)cc(C)nc4s3)CC2)c(C)c1 -12.3%, Cc1ccc2c(=O)cc(C(=O)Nc3ccc(S(=O)(=O)Nc4ncccn4)cc3)oc2c1C -16.5%, Cc1ccc2nc(COc3ccccc3NC(=O)c3ccc(F)cc3)cc(=O)n2c1 2.44%, O=C(CSc1nc2c([nH]c3ccccc32)c(=O)n1-c1ccc(Cl)cc1)c1ccccc1 -2.32%, Cc1cc(C)cc(NC(=O)Cn2cc(C(=O)C3CCCCC3)c3ccccc32)c1 -19.1%, Cc1ccc(-n2c(=O)c3c(c4cc(C)ccc4n3C)n(CC(=O)N3CCCC3)c2=O)cc1 -13.8%, CCOc1ccc(NC(=O)c2c(NC(=O)Cc3ccccc3)sc3c2CCCCC3)cc1 -0.496%, O=C(CSC1=Nc2ccccc2N=C(c2ccc(F)cc2)C1)Nc1ccccc1 -18.6%, O=C(Nc1cnc(N2CCN(c3ccccc3)CC2)c(C(=O)O)c1)c1cccs1 24.4%, CN1CCc2c(sc3c2C(=O)NC(c2ccc(C(C)(C)C)cc2)N3)C1 (stereo unspecified) -3.37%, Cc1cccc(-c2noc(-c3ccc(N4CCOCC4)c([N+](=O)[O-])c3)n2)c1 -21.5%, CC1CCN(S(=O)(=O)c2ccc3c(ccc(=O)n3CC(=O)Nc3cccc(F)c3)c2)CC1 -7.42%, Cc1ccc(NC(=O)c2cc(S(=O)(=O)NCCc3ccc(Cl)cc3)ccc2F)cc1 -9.43%, CC(C)(C)C1CCc2oc3ccc(NS(=O)(=O)c4ccc(C(=O)O)cc4)cc3c2C1 (stereo unspecified) -17.9%, COc1ccc(Cn2c(SCC(=O)N(C)Cc3ccccc3)nc3ccccc32)cc1 -16.1%, Cc1ccc(NC(=O)Cn2c(=O)nc(-c3ccccc3)c3ccccc32)cc1F 0.209%, COc1ccc(CCNc2ncnc3c2cnn3-c2cc(Cl)ccc2C)cc1 -3.27%, COc1ccc(C2N=C(N)Nc3nc4ccccc4n32)cc1 (stereo unspecified) -5.72%, CCOC(=O)C1CCN(c2nc3c(S(=O)(=O)c4ccc(C)c(C)c4)nnn3c3ccc(Cl)cc23)CC1 7.85%, CC1=C(C(=O)N2CCN(c3cccc(Cl)c3)CC2)C2(CCCCC2)OC1=O -13.8%, CC1CCCCN1C(=O)c1cc(-c2ccc(Br)cc2)on1 (stereo unspecified) -10.9%, COc1ccc(OC)c(C2CC(=O)Nc3c2c(=O)[nH]c2ncnn32)c1 (stereo unspecified) -8.36%, COc1ccc(C2NC(=O)N(C)C3=C2C(=O)N(c2ccc(C(=O)O)cc2)C3)cc1 (stereo unspecified) 11.2%, CCOC(=O)c1ccc(CN(Cc2ccc(F)cc2)S(=O)(=O)c2ccc(F)c(C(=O)Nc3c(C)cccc3C)c2)cc1 -17%

Source: PubChem BioAssay AID1159614 (National Center for Advancing Translational Sciences (NCATS), 2016)
